Experimental data as given in PubChem BioAssay AID1346428 (National Center for Advancing Translational Sciences (NCATS), 2018).
Several values for one entry are separate records, joined by “and”; a condition that tells them apart may be missing. Identical values can stand only once. Out of some 48,000 compounds screened, about 1,200 (2.5%) were called active. Inconclusive results (about 2%) are left out.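 How the source made its calls: active means activation of at least 60% and not above a set upper limit (about 1 call in 100 departs from these limits); inconclusive means activation of 40% to 60%, or above that upper limit; inactive means activation under 40%.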 Some of the results follow.

Biological target: Probable G-protein coupled receptor 32 (Homo sapiens) (UniProt O75388)
Sequence of UniProt O75388 (O75388 whole entry, looked up): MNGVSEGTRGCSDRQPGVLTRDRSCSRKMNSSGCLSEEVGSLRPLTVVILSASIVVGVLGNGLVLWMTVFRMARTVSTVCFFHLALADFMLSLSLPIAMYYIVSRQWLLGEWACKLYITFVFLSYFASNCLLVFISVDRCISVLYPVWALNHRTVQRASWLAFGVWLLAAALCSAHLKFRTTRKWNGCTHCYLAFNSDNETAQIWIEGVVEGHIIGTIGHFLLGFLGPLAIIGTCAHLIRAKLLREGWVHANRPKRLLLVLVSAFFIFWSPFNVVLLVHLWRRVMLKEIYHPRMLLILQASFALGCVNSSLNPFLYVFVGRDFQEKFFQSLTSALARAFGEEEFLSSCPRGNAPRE
Assay: qHTS for Agonists of Human Resolvin D1 Receptor DRV1; further: 0% is about no effect
Conditions: CHO-K1 GPR32 beta-arrestin PathHunter luminescence, 90 min; at 76.9 µM; active compounds read high; zero percent set by DMSO-only wells
Outline: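 Beta-arrestin recruitment read-out: luminescence from complemented beta-Gal in CHO-K1 GPR32 PathHunter cells, measured 1 h after detection reagent at ambient temperature following 90 min compound exposure at 37 °C; DMSO served as basal (EC0) control.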

activation, active:
O=C(CSc1nc2cc3ccccc3cc2[nH]1)Nc1ccc(F)cc1 65.1%
Cc1cc(C)cc(NC(=O)c2ccc3oc(=O)c(S(=O)(=O)c4ccc(F)cc4)cc3c2)c1 103%

activation, inactive:
COc1cc(Cl)c(NC(=O)CCc2nc3cccnc3n2-c2ccccc2)c(OC)c1 -6.04%
CC(=O)Nc1c(C)nn(-c2ccccc2)c1N1CCC(C(=O)NCc2cccc(Cl)c2)CC1 -8.58%
CC(C)(C)OC(=O)N1CCC(c2c(C(=O)N3CCN(c4ccccc4F)CC3)cnn2-c2ccccc2Cl)CC1 -2.03%
Cc1ccc(NC(=O)c2cnc(SCC(=O)N3CCCc4ccccc43)n(C)c2=O)cc1 -5.65%
CSC(N)=NCCC[C@H](N)C(=O)O -4.97%
CC1=C(C(=O)Nc2ccc(Cl)cc2)C(c2cccs2)n2nc(SCc3cccc(C)c3)nc2N1 (stereo not given) -1.1%
CCOc1ccc(NC(=O)CCNS(=O)(=O)c2ccc3c(c2)CCCC(=O)N3)cc1 -2.51%
COc1ccc(N2CCN(C(=O)C3CCN(S(=O)(=O)c4cccc5nonc45)CC3)CC2)cc1 9.14%
CCN1CCN(CCCNC(=O)CS(=O)(=O)Cc2nc(-c3ccccc3C)oc2C)CC1 0.252%
COc1cccc2sc(NC(=O)c3ccc(S(=O)(=O)N4CCC(C)CC4)cc3)nc12 -8.63%
CCOC(=O)c1noc2ncnc(Nc3cc(Cl)c(OC)cc3OC)c12 14.2%
COc1ccc(NC(=O)Cn2c(=O)c3cccn3c3ccccc32)cc1Cl -29.7%
O=C(Nc1ccc(-c2nc3ccccc3o2)c(O)c1)c1ccccc1 -2.35%
Cc1ccc(-c2nnc(Nc3ccc(C(N)=O)cc3)c3ccccc23)cc1S(N)(=O)=O -2.09%
COc1ccc(-c2nc3sc(CCNC(=O)Cc4ccc(F)cc4)c(C)n3n2)cc1 -10.2%
Cc1sc(-c2cc3ccccc3oc2=O)nc1-c1ccc(Cl)c(Cl)c1 -4.18%
COc1ccc(C)cc1NC(=O)Nc1cc(C(=O)NCc2ccc(C)cc2)ccc1N1CCCC1 -10.4%
CCOc1ccccc1OCCCCn1c(-c2ccc(Cl)cc2)nc2ccccc2c1=O -4.17%
CCOc1ccc(CNCc2c(C(=O)O)c(C)n(Cc3ccc(C)cc3)c2C)cc1 -6.13%
Cc1nnc(N2CCCC(C(=O)NCCN(C)C)C2)c2nn(-c3ccccc3)c(C)c12 (stereo not given) 4.9%
O=S(=O)(Nc1ccc(-c2ccc(N3CCCC3)nn2)cc1)c1ccc(C(F)(F)F)cc1 -10.1%
CCC(Sc1nc(-c2ccccc2)[nH]c1S(=O)(=O)c1ccc(C)cc1)C(=O)O (stereo not given) 6.18%
Cc1ccc(-n2ncc3c(N(C)C)ncnc32)cc1Cl -4.69%
Cc1cccc(-c2nc(CCNC(=O)c3ccc(Br)o3)cs2)c1 8.91%
Cc1cc(C)cc(OC(=O)c2cc(-c3ccc(Cl)cc3)on2)c1 12.8%
CC(C)c1ccc(-c2noc(SCC(=O)N3CCCCC3C)n2)cc1 (stereo not given) 31.7%
Cc1cc(=O)n(Cc2ccc(F)cc2Cl)c2c1c(C)nn2C 7.11%
O=C(NCCCN1CCN(c2ccc(F)cc2)CC1)c1cc2c(Cl)nc3ccccc3c2s1 -12.4%
Cc1ccccc1CNC(=O)c1oc2c(c1C)-c1nn(Cc3ccc(Cl)cc3)cc1CC2 -12.3%
CCN(CC)S(=O)(=O)c1ccc2c(c1)N(CC(=O)Nc1ccc(OC)cc1)C(=O)CS2 -6.69%
COC(=O)CSc1nc2sc3c(c2c(=O)n1-c1ccc(C)cc1)CC(C(C)C)OC3 (stereo not given) 19.1%
CCOc1ccc(NC(=O)C2CCCN(c3cnccn3)C2)cc1 (stereo not given) 0.0273%
CCOc1ccc(Cl)cc1CNCCCSc1nnnn1C 1.73%
COC(=O)c1ccccc1NC(=O)c1cnn(-c2ccc(F)cc2)c1-n1cccc1 25.2%
CCCCCOC(=O)Nc1nc(=O)n([C@@H]2O[C@H](C)[C@@H](O)[C@H]2O)cc1F 18.3%
Cc1ccc(CN(C(=O)COc2ccccc2[N+](=O)[O-])c2ccccn2)cc1 -13.1%
Cc1cccc(OCC(=O)NCCc2nc3ccccc3[nH]2)c1C -3.52%
O=C(NCc1ccccc1Cl)C1CCN(C(=O)N2CCOc3ccccc32)CC1 -9.99%
CCC(CC)C(=O)Nc1nnc(S(=O)(=O)N2CCc3ccccc32)s1 10.8%
CCCN(CCC)CCNC(=O)CN1C(=O)COc2ccc(S(=O)(=O)N3CCOCC3)cc21 -16%
CCOc1ccc(-n2nc(CO)c(C(=O)NCc3ccccn3)n2)cc1 -5.77%
COc1ccc(CNC(=O)CCc2c(C)c3cc4c(C)c(C)oc4cc3oc2=O)cc1 -12.4%
Cc1ccc(C(=O)Nc2nnc(S(=O)(=O)N3CCCCCC3)s2)cc1 21.9%
CC(=O)Nc1ccc(-c2nnc3n(Cc4ccc(C)cc4)c(=O)c4ccccc4n23)cc1 -9.15%
CC(=O)N1CCc2cc(S(=O)(=O)NC(CC(C)C)C(=O)NCc3ccccc3Cl)ccc21 (stereo not given) -7.55%
Cc1c(NC(=O)c2cc(-c3ccccc3O)on2)c(=O)n(-c2ccccc2)n1C 11%
O=c1c(NCc2ccccc2Cl)nccn1-c1ccccc1 -0.425%
CCOC(=O)CCC(=O)Nc1nnc2n1CCS2 -21.7%
CCCCCOc1ccc(Cn2c(=O)oc3ccc(C)cc32)cc1OC -17.7%
CCC(=O)N1CCc2cc(Br)cc(S(=O)(=O)N3CCC(C(=O)Nc4ccccc4F)CC3)c21 34.3%
CCCCNc1ccc(C(=O)OCCN(C)C)cc1 -21.7% and -4.09%
O=C1CC(c2cc(F)cc(F)c2)c2cc3c(cc2N1)OCO3 (stereo not given) 38.5%
Cc1c(C(=O)N2CCN(c3ccc(F)cc3)CC2)sc2nc3n(c(=O)c12)CCC3 -5.59%
CCCCS(=O)(=O)c1oc(-c2cccs2)nc1S(=O)(=O)c1ccc(F)cc1 -8.15%
Cc1cc(C)cc(C(=O)n2nc(C)c(S(=O)(=O)N3CCCCCC3)c2C)c1 6.92%
O=C(Nc1ccc(Cl)cc1Cl)c1cc(S(=O)(=O)N2CCCCCC2)ccc1F -23.8%
CCCCc1nn2c(=O)cc(COC(=O)c3ccccc3NC(=O)c3cccs3)nc2s1 -3.97%
CCCOc1ccc(NC(=O)CC2C(=O)N(c3ccc(C)cc3)C(=O)N2CCc2ccncc2)cc1 (stereo not given) -23.7%
O=C(Cn1ccn(-c2ccc(F)cc2)c(=O)c1=O)Nc1ccccc1C(F)(F)F -2.42%
Cc1cccc(NC(=O)Cn2nnc(C(=O)NCc3ccco3)c2N)c1 27.3%
Cc1oc(-c2ccc(C(=O)NCCN(C)C)cc2)nc1CS(=O)(=O)c1ccccc1 -8.67%
O=C(Cn1nc(-c2ccccc2)nc(Cc2ccccc2)c1=O)Nc1ccc(Cl)cc1 -2.07%
CC(C)Cn1c(C2CC(=O)N(c3ccccc3Cl)C2)nc2ccccc21 (stereo not given) 7.36%
Cc1cccc(-n2c(N)cc(=O)nc2SCC(=O)Nc2ccc(F)cc2)c1C 1.15%
COc1ccc(Br)cc1C(=O)Nc1ccc(-c2nc3ncccc3o2)cc1C 24.6%
COc1ccc(NC(=O)c2ccc(-c3ccc(-c4noc(C)n4)cc3C)cc2)cc1N1CCN(C)CC1 -7.88%
CCc1ccc(NC(=O)CSc2ccc3nc(-c4ccc(OC)cc4)cn3n2)cc1 -12.3%
Cc1ccc(C(=O)NCC(=O)OCc2cc(=O)n3ccsc3n2)cc1 -14.9%
CCC(C(=O)NCc1ccc2c(c1)CCN2C(=O)c1ccc(F)cc1)c1ccccc1 (stereo not given) -17.5%
Cc1noc(-c2ccc(-c3noc(-c4ccccc4)n3)cc2)n1 14.7%
CCc1ccc(C2CC(=O)c3c([nH]c(C(=O)OCc4ccc(C)cc4)c3C)C2)cc1 (stereo not given) 9.09%
O=C(NCCc1ccc(Cl)cc1)c1ccc(CS(=O)(=O)Cc2ccc(Cl)cc2)o1 27.6%
CCc1nc2ccc(C(=O)NCCc3ccc(OC)cc3OC)cc2nc1CC -0.658%
CCOC(=O)c1cc(-c2ccc(C)cc2)n(CCC(=O)Nc2cc(Cl)ccc2C)c1C -19.5%
CC1CCN(S(=O)(=O)c2ccc3[nH]cc(C(=O)NCc4ccc(F)cc4)c(=O)c3c2)CC1 -41.8%
CCOc1ccc(CCNC(=O)c2cc(Nc3ccc(C)cc3C)nc3ccccc23)cc1OCC 0.272%
CC(=O)c1cc(-c2ccccc2)n(CCC(=O)Nc2nc3c(C)cccc3s2)c1C -10%
Cc1ccc(N2CC(NC(=O)Cc3ccc(F)cc3)CC2=O)cc1 (stereo not given) -4.42%
O=C1Cc2cc(S(=O)(=O)N3CCCCC3)cc3c2N1CCC3 -33.1%
COc1cc2[nH]c(=O)n(Cc3ccc(C(=O)NCc4ccc(C)cc4)cc3)c(=O)c2cc1OC -2.19%
COc1ccccc1NC(=O)Cn1c(=O)n(-c2cccc(Cl)c2)c(=O)c2sc3ccccc3c21 -0.863%
Cc1ccc2c(c1)sc1nc(-c3cc4cc(Cl)ccc4oc3=O)cn12 -7.6%
Cc1cccc(CSc2nc(=O)c3c(n2C)NC(=O)CC3c2cccc(O)c2)c1 (stereo not given) -14.6%
